# From PubChem BioAssay AID1745853 (National Center for Advancing Translational Sciences (NCATS), 2022)
# The other results are listed elsewhere or left out. Further columns of the screen follow, without active or inactive calls.
# How the values were obtained:
# Test in all cases: Primary Screen for Target Class Profiling of Small Molecule Inhibitors of Methyltransferases
# [1] = biological target: Glycine N-methyltransferase (Homo sapiens) (UniProt Q14749); settings: purified enzyme, MTase-Glo SAH luminescence; measured here: GNMT inhibition; at 40 µM; stronger effect = lower value
# Summary of the method: (§1)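 Each enzyme was assayed with SAM and its substrate. SAH formation detected by MTase-Glo luminescence; single-point 40 uM screen[…].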
# [2] = biological target: Guanidinoacetate N-methyltransferase (Homo sapiens) (UniProt Q14353); settings: purified enzyme, MTase-Glo SAH luminescence; measured here: GAMT inhibition; at 40 µM; stronger effect = lower value
# Summary of the method: as §1
# [3] = biological target: Histamine N-methyltransferase (Homo sapiens) (UniProt P50135); settings: purified enzyme, MTase-Glo SAH luminescence; measured here: HNMT inhibition; at 40 µM; stronger effect = lower value
# Summary of the method: as §1
# [4] = biological target: Nicotinamide N-methyltransferase (Homo sapiens) (UniProt P40261); settings: purified enzyme, MTase-Glo SAH luminescence; measured here: NNMT inhibition; at 40 µM; stronger effect = lower value
# Summary of the method: as §1
# [5] = biological target: Phenylethanolamine N-methyltransferase (Homo sapiens) (UniProt P11086); settings: purified enzyme, MTase-Glo SAH luminescence; measured here: PNMT inhibition; at 40 µM; stronger effect = lower value
# Summary of the method: as §1
# % is scaled to controls: 0 for no effect and ±100 for the full control effect.
SMILES,"activity change, negative = inhibition [1] [%]","activity change, negative = inhibition [2] [%]","activity change, negative = inhibition [3] [%]","activity change, negative = inhibition [4] [%]","activity change, negative = inhibition [5] [%]"
CN(C)c1nc2c(c(=O)[nH]1)CCN(Cc1ccsc1)CC2,-2.62,-2.4,0.746,-0.446,15.1
O=C(CC1CCOC2(CCN(Cc3cccs3)CC2)C1)NC1CC1 (stereo not given),-2.53,2.94,2.17,-2.36,-9.96
CN(C)C[C@@H]1CN(c2ccccn2)C[C@H]1NC(=O)NC(C)(C)C,-0.623,-3.04,1.07,-2.56,0.151
CCCn1c(=O)c2ccc(C(=O)NC3CCCC3)cc2n2c(SCC(=O)NC3CCCC3)nnc12,1.54,4.39,2.62,2.91,2.02
CCNC(=O)[C@@H]1C[C@H](n2cc(CN(C)C(=O)NC3CCCCC3)nn2)CN1,-7.92,-10.5,-4.57,-15.8,-11.8
CC(C)S(=O)(=O)NC[C@@H]1CC(c2ccc(N3CCCC3)c(F)c2)=NO1,-5.02,4.23,-11.2,-12.1,-6.86
COc1nccnc1NC1CCN(C(=O)NC2CCCC2)CC1,-1.02,2.18,1.85,-5.37,14.5
COc1ccc(CN2CCN(C(c3ccc(F)cc3)c3ccc(F)cc3)CC2)c(OC)c1OC,1.18,-9.64,5.85,-22.8,-4.02
O=C(CCCn1nc(-c2ccccc2)c2cc(Cl)ccc21)N1CCN(c2ccccn2)CC1,-2.78,0.821,8.82,-7.89,2.7
Clc1ccc2c(c1)C1=NCCN1c1c(-c3noc(C4CC4)n3)ncn1-2,-13,-3.8,5.24,-23.9,-2.4
COCCCn1c(C)cc(C(=O)N2CCCC(c3[nH]ccc3C(N)=O)C2)c1C (stereo not given),-7.73,-2.85,-1.47,0.734,-7.54
CN(C)CC(O)c1cc2n(n1)CCN(C(=O)c1cc(=O)[nH]c(=O)[nH]1)C2 (stereo not given),-4.89,-10.5,-3.67,-14.1,-10.4
Cc1ccc(C)c(Nc2nn3c(=O)c4ccc(C(=O)NC5CCCCC5C)cc4nc3s2)c1 (stereo not given),1.27,0,-2.87,-2.38,-2.02
CC1(C(=O)NC2CCCCCCC2)Cn2c(cc3occc32)C(=O)N1CCN1CCOCC1 (stereo not given),5.51,-0.067,3.59,5.77,-0.055
Cc1ccc(Cn2c(=O)c3ccc(C(=O)NCC(C)C)cc3n3c(=O)n(Cc4ccccc4)nc23)cc1,10.3,2.33,12.4,9.42,9.38
FC(F)(F)c1ccc(CN2CCCC3(CC(c4ccccn4)=NO3)C2)cc1 (stereo not given),-2.85,0.322,0.448,-11.9,7.04
COc1ccc(C(=O)N2CCn3nc(C(O)CS(C)(=O)=O)cc3C2)cn1 (stereo not given),-4.99,-12.4,-4.8,-16.3,-12.3
O[C@@H]1CO[C@H]2[C@@H]1OC[C@@H]2n1nnnc1Sc1ncccn1,-1.29,2.82,2.32,1.57,3.32
CCC(C)C(=O)O[C@H]1C[C@](C)(O)[C@]23OC(C)(C)[C@H](C[C@H](OC(=O)c4ccccc4)[C@]2(COC(C)=O)[C@H]1OC(=O)C(C)CC)[C@H]3OC(C)=O (stereo not given in full),0,8.8,12.4,-6.06,2.72

SMILES,"activity change, negative = inhibition [1] [%]","activity change, negative = inhibition [2] [%]","activity change, negative = inhibition [3] [%]","activity change, negative = inhibition [4] [%]","activity change, negative = inhibition [5] [%]"
Cc1ccc(N2C(=O)c3cc4sccc4n3CC2(C)C(=O)NC2CCCCC2)c(C)c1 (stereo not given),2.02,5.23,2.46,8.64,0.524
CC1CCCCC1NC(=O)C1c2cccn2CC(=O)N1c1ccc(Cc2ccncc2)cc1 (stereo not given),1.16,0.87,7.08,5.53,2.89
O=C(O)C[C@@H]1CCN(C(=O)c2ccc(F)cc2)C[C@@H]1CCN1CCN(c2ccc(F)cc2)CC1,-6,-3.82,-1.01,-6.44,-17
COC(=O)c1ncn2c1C(=O)N(Cc1ccc(N(C)C)cc1)C(C)(C(=O)NC1CCCCC1)C2 (stereo not given),3.21,0,7.75,15,4.14
CC1(C(=O)NC2CCCCCCC2)Cn2c(cc3sccc32)C(=O)N1c1ccc(Cl)cc1 (stereo not given),0.26,3.31,7.49,4.45,-1.47
CCOc1ccc(CCN2C(=O)c3cc(C(=O)OC)nn3CC2(C)C(=O)NC2CCCC2)cc1 (stereo not given),5.55,0.524,11.5,12.9,5.1
COc1ccc(OC)c(S(=O)(=O)N2CC(N(C3CCOCC3)S(C)(=O)=O)C2)c1,-0.947,-5.65,2.59,-8.9,11.5
O=C(c1ccc2c(=O)nc3c(-c4cccc(F)c4)n[nH]n3c2c1)N1CCN(c2ccccc2F)CC1,2.13,6.48,1.57,2.9,-0.443
O=C(Nc1ccccc1)c1cnc2c(c1)N(C(=O)Cc1ccc(O)cc1)CCC2,-6.97,-1.74,-89.1,-11,-5.02
CC1(C)CCC[C@@]2(C)[C@H]1[C@H](O)C=C(CO)[C@]2(O)CO,4.28,9.18,10.8,-6.28,2.7
CCCc1ccc2oc(C(=O)N(C)CCC3CCCCO3)c(C)c2c1 (stereo not given),-9.11,-13.1,-5.34,-16.9,-14.2
CCOCC(=O)N[C@@H]1CN(S(C)(=O)=O)C[C@H]1CN(C)C,-1.67,-6.86,1.94,-2.41,2.98
Cc1nc(C)c(C(=O)N2Cc3ccccc3C(O)C2)s1 (stereo not given),-5.96,-11.7,-4.56,-6.12,-9.72
COc1ccc(OC)c2c1cc1n2CC(C)(C(=O)NC2CCCCC2C)N(Cc2cccs2)C1=O (stereo not given),0.195,0,4.65,-1.7,1.87
CCCCS(=O)(=O)Nc1ncnc(OCCOc2ncc(Br)cn2)c1-c1ccc(Br)cc1,-7.45,-2.71,9.57,-14.8,0.444
O=C(CC1CCCC1)N1C[C@@H](CO)[C@@H]2Oc3ccc(Cl)cc3[C@@H]21,-3.69,-3.26,-2.05,-14.2,-2.79
Cn1cc(C2=C(c3coc4ccccc34)C(=O)NC2=O)c2cc(Br)ccc21,-5.39,-23,-7.25,-44.1,-8.09
CC(C)CCN1C(=O)c2cc3occc3n2CC1(C)C(=O)NC1CCCCC1 (stereo not given),-1.06,4.99,2.71,6.14,-2.65
CC1(C(=O)NC2CCCCCC2)Cn2nc(-c3ccco3)cc2C(=O)N1Cc1ccc(F)cc1 (stereo not given),-11,1.55,-8.94,-10.1,-5.64
